Source: the antibiotic and cytotoxicity screens of Wong et al. (2023)
Some of the results follow.

Key:
HSkMC = human skeletal muscle cells; experiment: cytotoxicity call (relative viability < 0.9); conditions: 10 µM
HepG2 = experiment: cytotoxicity call (relative viability < 0.9); conditions: 10 µM
S. aureus RN4220 = experiment: growth inhibition call (relative growth <= 0.2); conditions: 50 µM

Structure (SMILES): C[C@@H]1CN([C@@H](C)CO)C(=O)c2cccc(NC(=O)Nc3ccc4c(c3)OCO4)c2O[C@@H]1CN(C)Cc1ccc(-c2ccccc2)cc1
- cytotoxicity call (HSkMC): active
- cytotoxicity call (HepG2): active
- growth inhibition call (S. aureus RN4220): inactive

Structure (SMILES): C[C@@H]1CCCCO[C@H](CN(C)S(=O)(=O)c2ccc(F)cc2)[C@H](C)CN([C@@H](C)CO)C(=O)c2cc(NC(=O)C3CCCCC3)ccc2O1
- cytotoxicity call (HSkMC): inactive
- cytotoxicity call (HepG2): inactive
- growth inhibition call (S. aureus RN4220): inactive

Structure (SMILES): Cc1noc(C)c1NC(=O)Nc1ccc2c(c1)CC(=O)N([C@@H](C)CO)C[C@H](C)[C@H](CN(C)C(=O)Nc1cccc3ccccc13)O2
- cytotoxicity call (HSkMC): inactive
- cytotoxicity call (HepG2): inactive
- growth inhibition call (S. aureus RN4220): inactive

Structure (SMILES): Cc1ccc(S(=O)(=O)N(C)C[C@H]2Oc3c(NC(=O)Nc4ccc(C(F)(F)F)cc4)cccc3C(=O)N([C@@H](C)CO)C[C@@H]2C)cc1
- cytotoxicity call (HSkMC): inactive
- cytotoxicity call (HepG2): inactive
- growth inhibition call (S. aureus RN4220): inactive

Structure (SMILES): COc1ccc(CN(C)C[C@@H]2Oc3c(NC(=O)CCCCCC(=O)Nc4ccccc4N)cccc3C(=O)N([C@@H](C)CO)C[C@H]2C)cc1
- cytotoxicity call (HSkMC): inactive
- cytotoxicity call (HepG2): inactive
- growth inhibition call (S. aureus RN4220): inactive

Structure (SMILES): COc1ccccc1-c1cnc2c(c1)C(=O)N([C@H](C)CO)C[C@H](C)[C@H](CN(C)C(=O)c1ccncc1)O2
- cytotoxicity call (HSkMC): inactive
- cytotoxicity call (HepG2): inactive
- growth inhibition call (S. aureus RN4220): inactive

Structure (SMILES): COc1ccc(S(=O)(=O)N(C)C[C@@H]2OCCCC[C@@H](C)Oc3ccc(NC(=O)Nc4ccc(C(F)(F)F)cc4)cc3C(=O)N([C@@H](C)CO)C[C@@H]2C)cc1
- cytotoxicity call (HSkMC): inactive
- cytotoxicity call (HepG2): inactive
- growth inhibition call (S. aureus RN4220): inactive

Structure (SMILES): C[C@@H]1CN([C@@H](C)CO)C(=O)Cc2cc(NS(C)(=O)=O)ccc2O[C@H]1CN(C)Cc1ccc2c(c1)OCO2
- cytotoxicity call (HSkMC): inactive
- cytotoxicity call (HepG2): inactive
- growth inhibition call (S. aureus RN4220): inactive
